# Results as given in patent US20090291088A1, “THERAPEUTIC COMBINATIONS OF ANTI-IGF-1R ANTIBODIES AND OTHER COMPOUNDS” (Biogen Idec MA Inc., priority 2008, published 2009).
# B1: M14-G11: anti-IGF1-R antibody, competitive blocker of IGF-1 and IGF-2 (antibody, V domains shown)
# VH: EVQLLESGGGLVQPGGSLRLSCAASGFTFSNYPMYWVRQAPGKGLEWVSRISSSGGRTVYADSVKGRFTISRDNSKNTLYLQMNSLRAEDTAVYYCARDRWSRSAAEYGLGGYWGQGTLVTVSS
# VL: DIQMTQSPDSLAVSLGERATINCKSSQSVLYSSNNKNYLAWYQQKPGQPPKLLIYLASTRESGVPDRFSGSGSGTDFTLTISSLQAEDVAVYYCQQYYSTWTFGQGTKVEIK
# modifications: Antibody variable heavy chain sequence; Antibody variable light chain sequence
# Target: T1, IGF-1R phosphorylation (Homo sapiens, UniProt P08069)
# T1 construct: wild type IGF-1R expressed on MCF-7 tumor cells; endogenous in cells; host or cells: MCF-7
# Assay: Inhibition of IGF-1 and IGF-2 mediated IGF-1R phosphorylation in MCF-7 cells (ELISA)
# Type: cell-based
# Settings: Fabs
# Procedure: Cell lines: IGF1R expressing human breast carcinoma cell line MCF-7 (NCI) were maintained at 37° C. and 5% CO2 in MEM eagle (ATCC) containing 10% FBS, 1× non-essential amino acids, 2 mM L-glutamine, 1 mM sodium pyruvate and 1000 U/ml penicillin and streptomycin. Cells were sub-cultured twice weekly for maintenance and assay, and used with a maximum of 12 passages.
# MCF-7 cells were plated in 2 ml growth media at 2×10^5 to 4.0×10^5 cells/well in Ploy-D-Lysine coated 12 well plates (BD Biosciences, #35-6470) and cultured at 37° C., 5% CO2. […]
# Cell lysates were added to ELISA plates pre-coated with IGF-1Rp antibody (Clone 1-2, Biosource International, #AHR0361) and incubated for 2 hours. Following which plates were washed and the plate bound phosphorylated receptor was detected with the biotin labeled anti-phosphotyrosine antibody 4G10 (Catalog #16-103, Upstate Cell Signaling Solutions (Lake Placid, N.Y. (now part of Millipore, Concord, Mass. (USA)) and streptavidin-HRP (BD Pharmingen, #554066). Assay is developed by addition of TMB substrate (Kierkegaard & Perry, #50-76-00) and color stopped by addition of […] (LabChem, Cat#LC25830-1). Optical density is measured at 450 nm using a Molecular Devices plate reader and percent inhibition over the ligand control is calculated for each antibody-ligand sample. […]
molecule,measurement,setting,value
B1,Inhibition of IGF-1R Phosphorylation IGF-1,IGF-1 stimulated,+ (>30%@10 ug/ml)
same,Inhibition of IGF-1R Phosphorylation IGF-2,IGF-2 stimulated,+++ (>30%@0.1ug/ml)
